According to PubChem BioAssay AID1346428 (National Center for Advancing Translational Sciences (NCATS), 2018):
Screen size: about 48,000 compounds; about 1,200 (2.5%) were called active. Roughly 2% stayed inconclusive and do not appear here.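 How the source made its calls: active means activation of at least 60% and not above a set upper limit (about 1 call in 100 departs from these limits); inconclusive means activation of 40% to 60%, or above that upper limit; inactive means activation under 40%.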 The list shows a part of the results.

target: Probable G-protein coupled receptor 32 (Homo sapiens) (UniProt O75388); experiment: qHTS for Agonists of Human Resolvin D1 Receptor DRV1; details: CHO-K1 GPR32 beta-arrestin PathHunter luminescence, 90 min; at 76.9 µM; hits give high values; zero percent set by DMSO-only wells; further: 0% is about no effect
Sequence of UniProt O75388 (O75388 whole entry, looked up, the tested form may be a part): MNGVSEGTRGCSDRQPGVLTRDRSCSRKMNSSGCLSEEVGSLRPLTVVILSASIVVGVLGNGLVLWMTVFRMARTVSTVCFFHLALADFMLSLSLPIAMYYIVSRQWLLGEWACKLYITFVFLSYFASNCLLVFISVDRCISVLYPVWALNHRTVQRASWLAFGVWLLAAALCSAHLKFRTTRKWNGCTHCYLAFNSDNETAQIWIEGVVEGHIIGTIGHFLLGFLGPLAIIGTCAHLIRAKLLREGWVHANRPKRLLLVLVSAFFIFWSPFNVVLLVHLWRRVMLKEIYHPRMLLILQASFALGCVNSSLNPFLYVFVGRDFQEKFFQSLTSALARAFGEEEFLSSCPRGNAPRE
Outline: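 GPR32 activation in stably transfected CHO-K1 cells, detected as beta-arrestin recruitment by enzyme-fragment complementation. Compound exposure: 90 min, 37 °C.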

Compound | activation
CCOc1ccc(-n2ccnc2SCC(=O)Nc2ccc(OC)cc2OC)cc1 | inactive: -10.1%
CC1=C(C(=O)OC2CCCC2)C(c2cccc(Cl)c2Cl)CC(=O)N1 (centres undefined) | active: 83.1%
Cc1ccc(Cl)cc1N1CCN(C(=O)c2cn(C)c3ccc(S(=O)(=O)N4CCCC4)cc3c2=O)CC1 | inactive: -3%
O=C(Cn1c(=O)n(-c2ccccc2)c(=O)c2c3c(sc21)CCCC3)Nc1ccc(F)cc1 | inactive: 5.68%
COc1ccccc1N1CCN(C(=O)c2cc3c(=O)n(Cc4cccnc4)ccc3nc2C)CC1 | inactive: -3.23%
Cc1ccccc1OCC(=O)Nc1nnc(S(=O)(=O)N(C)c2ccccc2)s1 | inactive: -14.9%
COc1ccc(Br)cc1CNC(=O)c1cc2c(=O)n(C)c3ccccc3c2s1 | inactive: 0.691%
Cc1cccc(CCNC(=O)c2nc(-c3ccc(Cl)cc3)n3c2CCCCC3)c1 | inactive: -45.2%
Oc1cccc2[nH]ccc12 | inactive: -20%
CCN1CCN(c2ncc3c(n2)CCN(Cc2ccc(C)s2)C3)CC1 | inactive: -16.6%
CCOc1ccc(C(=O)OCc2cc(=O)n3nc(C(C)C)sc3n2)cc1 | inactive: -4.98%
CO/N=C(/C(=O)N[C@@H]1C(=O)N2C(C(=O)[O-])=C(C[n+]3ccn4ncccc43)CS[C@H]12)c1nsc(N)n1 | inactive: 6.16%
CN(C)[C@@H]1C(=O)C(C(=O)NCN2CCCC2)=C(O)[C@@]2(O)C(=O)C3=C(O)c4c(O)cccc4[C@@](C)(O)C3C[C@@H]12 (some centres undefined) | inactive: -6.2%
CC(C)CC(=O)N(Cc1ccccc1)S(=O)(=O)c1ccc2c(c1)oc(=O)n2C | inactive: -2%
CC(=O)c1ccc(NC(=O)COc2ccccc2-c2nc(C)no2)cc1 | inactive: -9.96%
CCn1c2c(c(=O)n3ncc(C(=O)Nc4ccc(F)c(Cl)c4)c13)CN(Cc1ccc(OC)cc1)CC2 | inactive: -13.4%
O=c1c2ccccc2nc2sc(Nc3cccc(C(F)(F)F)c3)nn12 | inactive: 5.53%
CCN(CC)c1ccc(C2C(C(N)=O)=C(C)Nc3nc(SCc4ccccc4)nn32)cc1 (centres undefined) | inactive: -22%
COC(=O)c1cc(Cl)ccc1NS(=O)(=O)C(F)(F)F | inactive: -4.14%
CCOC(=O)c1nnc2c(-c3ccc(F)cc3)c(C)nn2c1N | inactive: -20.4%
COc1ccc(/C=C\c2onc(C)c2S(=O)(=O)N2CCC(C(=O)Nc3ccc(C)c(F)c3)CC2)cc1 | inactive: -17.8%
CSc1cccc(NS(=O)(=O)c2ccc3[nH]cc(C(=O)N4CCCCCC4)c(=O)c3c2)c1 | inactive: -3.52%
Fc1ccc(-c2noc3ncnc(NCc4cccc(Cl)c4)c23)cc1 | inactive: -6.09%
Cc1cccc(Cc2c(C)nc3nc(SCC(=O)NC4CCCCC4)nn3c2C)c1 | inactive: -25.3%
COc1ccc(-c2noc(CCC(=O)Nc3ccccc3Cl)n2)cc1OC | inactive: -2.94%
COCCN1CN=C(NS(=O)(=O)c2ccc(C)cc2)NC1 | inactive: -9.31%
COc1ccccc1CNC(=O)c1cnn(-c2ccc(F)cc2F)c1C1CCN(C(=O)OC(C)(C)C)CC1 | inactive: -21.7%

Compound | activation
Cc1ccc(N2CC(NC(=O)Cc3ccc(F)cc3)CC2=O)cc1C (centres undefined) | inactive: -6.33%
COC(=O)c1cccnc1-n1c(=O)c2cccnc2n(CC(=O)Nc2cccc(C(F)(F)F)c2)c1=O | inactive: -14.8%
CCOc1cc(C2CC(=O)Nc3c2c(C)nn3-c2nc(C)cc(C)n2)ccc1O (centres undefined) | inactive: -8.25%
Cc1ccc(-c2onc(C)c2C)cc1S(=O)(=O)NC1CCC(C)CC1 (centres undefined) | inactive: -24.4%
COc1ccccc1N1CCN(C(=O)c2oc3ccccc3c2N)CC1 | active: 70.9%
COc1ccc(/C=C(\C#N)c2nc(-c3cc4ccccc4oc3=O)cs2)cc1OC | inactive: -6.98%
CC1CCN(S(=O)(=O)c2ccc3nc(N4CCN(c5ccccc5F)CC4)ccc3c2)CC1 | inactive: -3.94%
FC(F)(F)c1cccc(N2CCN(Cc3nnc(-c4ccccc4)o3)CC2)c1 | inactive: -25.4%
O=C(/C=C/c1ccccc1)Nc1cc(-c2nc3ccccc3o2)ccc1Cl | inactive: 1.9%
COc1cc(C)ccc1OCCSc1nnc(-c2cccs2)o1 | inactive: -0.749%
CCCN(CCC)CCCNC(=O)c1nn(C)c2c1CS(=O)(=O)c1ccccc1-2 | inactive: -4.51%
CC(=O)Nc1nonc1-c1nnc(SCc2cccc(Br)c2)n1C | inactive: -6.63%
CCOc1ccccc1CNC(=O)c1ccc(Cn2c(=O)c3cccn3c3cccnc32)cc1 | inactive: -13.2%
CC(C)c1ccc(-c2noc(SCC(=O)N3CCCCC3)n2)cc1 | inactive: 11.4%
CC(C)(C)OC(=O)N1CCC(c2c(C(=O)NCc3ccccn3)cnn2-c2ccccc2Cl)CC1 | inactive: -11.4%
Cc1ccc(C)c(N2CCN(S(=O)(=O)c3ccc(C4CCCCC4)cc3)CC2)c1 | inactive: -8.78%
CCCc1noc(-c2ccc(NCc3ccccc3OC)c([N+](=O)[O-])c2)n1 | inactive: -13.7%
Cn1c(=O)nc2n(-c3ccc(Br)cc3)c3cccc(Cl)c3cc-2c1=O | inactive: -2.14%
CCC(=O)N1c2ccccc2CC1C(=O)NCCN1CCN(c2ccccc2F)CC1 (centres undefined) | inactive: 8.02%
Cc1ccc(NC(=O)CSc2nc(=O)n(CCN3CCOCC3)c3c2CCC3)cc1Cl | inactive: -16.8%
Cc1ccc(Nc2c(-c3cccc(Cl)c3)nc3cccc(C)n23)cc1 | inactive: -17.1%
Cc1cc(-c2ccc(C)c(S(=O)(=O)NCCc3ccccc3)c2)on1 | inactive: -12%
COc1cccc(CNC(=O)C2CCN(c3ncnc4c3nc3n4CCCCC3)CC2)c1 | inactive: -1.86%
O=C(Nc1cc(-c2nc3ccccc3o2)ccc1Cl)c1cc([N+](=O)[O-])ccc1N1CCOCC1 | inactive: 6.14%
CCOc1ccccc1NC(=O)CSc1nc(-c2cccs2)cc(C(F)(F)F)n1 | inactive: 20.2%
COc1ccc(Cl)cc1NC(=O)c1c(NCc2cccs2)sc2c1CCC(C)C2 (centres undefined) | inactive: 4.27%
CC(C)c1ccc(NC(=O)CSC2=Nc3ccccc3C3=NC(CC(=O)NCCc4ccccc4)C(=O)N23)cc1 (centres undefined) | inactive: -13.2%
